Test results as given in article PMC4336329 (PLoS ONE, 2015).
The campaign covered roughly 310,000 compounds. About 14,000 (4.5%) showed an effect of 50% or more. Effects have a minus sign here. The list shows a part of the results.

biological target: human ether-à-go-go-related gene (hERG) potassium channel (human, UniProt Q12809); assay: primary screen, population patch clamp on CHO cells stably expressing hERG
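Also: peak tail current of the secondary pulse compared with the same well before compound.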

Chain of human ether-à-go-go-related gene (hERG) potassium channel (Q12809 whole entry, looked up): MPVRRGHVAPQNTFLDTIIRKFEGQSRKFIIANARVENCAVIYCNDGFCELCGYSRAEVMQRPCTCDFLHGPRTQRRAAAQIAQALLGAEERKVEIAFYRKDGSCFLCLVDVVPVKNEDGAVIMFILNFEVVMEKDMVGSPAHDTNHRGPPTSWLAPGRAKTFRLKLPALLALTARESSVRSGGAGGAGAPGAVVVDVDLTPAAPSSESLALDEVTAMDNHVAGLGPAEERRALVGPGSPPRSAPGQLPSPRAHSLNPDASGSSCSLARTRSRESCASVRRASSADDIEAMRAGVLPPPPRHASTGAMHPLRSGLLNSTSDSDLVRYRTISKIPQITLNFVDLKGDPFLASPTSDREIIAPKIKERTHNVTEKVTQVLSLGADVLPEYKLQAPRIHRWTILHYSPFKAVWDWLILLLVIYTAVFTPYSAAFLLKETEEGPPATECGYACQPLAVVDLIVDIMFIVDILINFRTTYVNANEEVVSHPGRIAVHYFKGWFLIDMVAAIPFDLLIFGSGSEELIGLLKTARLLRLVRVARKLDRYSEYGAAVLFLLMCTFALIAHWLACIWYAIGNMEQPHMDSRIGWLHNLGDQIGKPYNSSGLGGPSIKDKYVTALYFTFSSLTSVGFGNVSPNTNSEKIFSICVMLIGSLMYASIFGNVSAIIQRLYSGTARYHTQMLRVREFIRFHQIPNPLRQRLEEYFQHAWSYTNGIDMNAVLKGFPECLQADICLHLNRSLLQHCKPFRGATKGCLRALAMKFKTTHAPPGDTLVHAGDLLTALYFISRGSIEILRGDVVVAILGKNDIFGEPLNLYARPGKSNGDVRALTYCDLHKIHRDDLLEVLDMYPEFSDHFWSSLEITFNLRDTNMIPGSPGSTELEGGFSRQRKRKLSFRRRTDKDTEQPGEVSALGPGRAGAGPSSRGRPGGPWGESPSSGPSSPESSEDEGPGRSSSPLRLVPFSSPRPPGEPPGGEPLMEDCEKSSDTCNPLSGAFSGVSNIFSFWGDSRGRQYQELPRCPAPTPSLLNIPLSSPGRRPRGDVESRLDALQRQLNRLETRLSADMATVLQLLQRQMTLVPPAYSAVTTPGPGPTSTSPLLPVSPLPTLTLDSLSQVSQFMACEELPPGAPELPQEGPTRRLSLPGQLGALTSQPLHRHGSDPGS

SMILES	hERG current change (%, negative = inhibition) at 10uM [%]
Cc1ccccc1-n1c(SCC(=O)Nc2ccc3c(c2)OCO3)nnc1-c1ccccn1	-65.3
CCOc1ccc(NC(=S)N2CCC(NC(=O)c3ccccc3)CC2)cc1	1.49
CC1(C)CC(NC(=O)c2ccccc2F)CC(C)(C)N1	1.84
CCN1C(=NCCOC)N[C@@H](c2cccs2)C(C(=O)OC)=C1C	-5.96
CCOC(=O)Cc1c(C)nc2cc(C)nn2c1C	0.264
COc1ccc(Cn2c(=O)[nH]c3cc(C(=O)NC4CCN(Cc5ccccc5)CC4)ccc32)cc1	-3.88
COc1cc(C(=S)N2CCOCC2)cc(OC)c1OS(=O)(=O)c1ccc(Cl)cc1	15.1
O=C(Nc1nc(-c2ccco2)c(-c2ccco2)s1)C1CCC1	-3.44
CCOC(=O)/C=C1/N(C)c2ccccc2C1(C)C	13.3
O=[N+]([O-])c1cc(/C=N/O)ccc1N1CCCC1	-10.9
COC(=O)c1ccccc1NC(=S)N(Cc1ccc2c(c1)OCO2)Cc1cc2ccc(C)cc2[nH]c1=O	15.1
CC1=C(C(N)=O)C(c2ccc(F)cc2)n2nc(CCCO)nc2N1 (stereo not drawn)	20.3
COc1ccc(N2C(=O)c3ccccc3NC23CCCC3)cc1	5.72
COc1ccc(C(=O)NC2CCSC2=O)cc1 (stereo not drawn)	-0.732
Cc1cccn2c(=O)c3cc(C(=O)N4COCC4(C)C)sc3nc12	0.269
CN(CC(=O)Nc1ccc(F)cc1)C(=O)c1cccc(S(=O)(=O)N2CCN(c3ccccc3)CC2)c1	-3.13
O=C(Oc1cc(-c2ccccc2)no1)c1cccc(C(F)(F)F)c1	19.3
O=C1c2ccccc2-c2ncnc3c(N4CCOCC4)cc(N4CCOCC4)c1c23	-60
CC(C)c1ccc(CCNC(=O)CSC(=S)N2CCCC2)cc1	0.382
COCCNc1ccc(N2C(=O)C3CCCCC3C2=O)cc1[N+](=O)[O-] (stereo not drawn)	0.289
O=C(N/N=C/c1ccccn1)c1cc(C2CC2)[nH]n1	7.51
Cc1ccc(S(=O)(=O)N(C)c2ccc(C(=O)N(CC(C)C)C3CCS(=O)(=O)C3)cc2)cc1 (stereo not drawn)	-14.6

SMILES	hERG current change (%, negative = inhibition) at 10uM [%]
COc1ccc([N+](=O)[O-])cc1N(CC(O)CN(C)C)S(=O)(=O)c1ccccc1 (stereo not drawn)	5.54
CCCCC(=O)Nc1nnc(/C=C/c2ccc(OC)cc2)s1	4.22
CCCCn1nnc(NC(=O)CCC)n1	-2.04
O=C(CCc1nc2ccccc2c(=O)[nH]1)NCC(=O)Nc1ccc(F)c(F)c1	-7.59
Cc1cc(C)cc(N(C(=O)c2csnn2)C(C(=O)NC(C)(C)C)c2cccnc2)c1 (stereo not drawn)	-20.5
CC(=O)c1c(N2CCN(c3ccc(F)cc3)CC2)nc(=S)n(Cc2ccccc2)c1C	-41.7
O=C(NCc1ccccc1Cl)c1ccc2c(=O)n(CC3CCCO3)c(=S)[nH]c2c1 (stereo not drawn)	10.1
CN(CCOc1ccc(-c2ccn(S(=O)(=O)c3c(Cl)cccc3Cl)n2)cc1)c1ccccn1	12.3
Cc1ccc(N(CC(=O)NC(C)C)C(=O)CCC(=O)Nc2nccs2)cc1C	-3.19
CC1CCCCC12NC(=O)N(CC(=O)N1CCN(c3ncccn3)CC1)C2=O (stereo not drawn)	11.2
O=C(C[n+]1ccccc1)N/N=C/c1ccccc1C(F)(F)F.[Cl-]	11.3
O=C(Cn1cnc2c(cnn2-c2ccccc2)c1=O)c1ccc(Cl)cc1	-8.8
CC1(C)CC(=O)C2(CC3=C(CC(C)(C)CC3=O)O2)C(=O)C1	-10.6
O=C(CNC(=O)c1ccc(Cl)cc1Cl)OCC(=O)N1CCCC1	-3.73
COc1ccc(CC/C(=N\O)C2(O)CCCCC2)cc1	6
CCN(CC(=O)Nc1ccccc1OC)C(=O)c1ccc(NS(=O)(=O)c2ccc(C(C)=O)cc2)cc1	0.13
COc1cc(/C=C2/SC(=O)N(Cc3ccccc3Cl)C2=O)ccc1OCc1ccncc1	6.3
O=C(Nn1cnc2ccccc2c1=O)c1ccccc1F	1.78
Cc1ccc(SCCNC(=O)c2cccc([N+](=O)[O-])c2C)cc1	-27.6
CCOc1ccccc1-n1c(SCC(N)=O)nnc1-c1ccc(O)cc1	-4.86
COc1ccc(CCNC(=O)CCn2cccc2)cc1OC	1.6
Cc1onc(-c2c(F)cccc2Cl)c1C(=O)Nc1nccs1	-5.56

SMILES	hERG current change (%, negative = inhibition) at 10uM [%]
S=c1[nH]nc(-c2ccco2)n1/N=C/c1cccs1	35.2
COc1ccc(OC)c(S(=O)(=O)N2CCCC2C(=O)N2CCc3ccccc3C2)c1 (stereo not drawn)	-42.4
O=C(NC(=S)N1CCOCC1)c1ccccc1Cl	12.7
CCn1c(SCC(=O)Nc2ccccc2N2CCCCC2)nc2c1c(=O)n(C)c(=O)n2C	-42.8
CCCOc1ccc(Cc2c(O)nc(SC)[nH]c2=O)cc1C	1.85
CCCCn1c(N)c(N(CCOC)C(=O)COC(=O)COc2cc(C)c(Cl)cc2C(C)C)c(=O)[nH]c1=O	-44.1
Cc1ccc(N(C(C)C(=O)O)S(=O)(=O)c2cccnc2)cc1 (stereo not drawn)	17
CCOC(=O)c1c(-c2ccc(C)cc2)csc1NC(=O)CCN1CCOCC1	-42.1
CC(OC(=O)CCc1nc2ccccc2c(=O)[nH]1)C(=O)Nc1ccc2c(c1)OCO2 (stereo not drawn)	10.9
OC(CN1CCOCC1)C12CC3CC(CC(C3)C1)C2 (stereo not drawn)	2.88
O=C(NCc1cccnc1)c1nc(-c2cccs2)no1	-0.749
CC(C)n1cnc2c(Nc3ccc(C(=O)O)cc3)nc(Cl)nc21	12.3
O=C(Nc1ccc2c(c1)nc1n2CCOC1)c1ccccc1	-2.73
Nc1nc(SCC(=O)Nc2cc(S(=O)(=O)N3CCOCC3)ccc2Cl)n[nH]1	12.3
O=C(CCN1C(=O)c2ccccc2C1=O)N1CCN(C(=O)c2ccccc2)CC1	0.00878
CCN1CCN(C(C)C(=O)NC2CCCCC2)CC1.O=C(O)C(=O)O (stereo not drawn)	7.26
CC(=O)c1ccc(NC(=O)Nc2ccc3c(c2)N(C)C(=O)CS3)cc1	4.44
C/C(=N\NC(=O)CSc1nc(C)cc(C)n1)c1cccs1	-39.5
COc1ccc(-c2csc(NC(=S)NC(=O)c3cc4ccccc4o3)n2)cc1Br	19.9
CCOc1ccc2[nH]c(=O)c(CN(Cc3ccc(F)cc3)C(=O)N3CCCC3)cc2c1	11.1
CC[C@@H]1C(=O)OC[C@@H]1CC1=CN=C[NH+]1C.O=[N+]([O-])[O-]	15.7
COc1ccc(OCC(=O)Nc2ccc(N3CCN(C(=O)c4ccccc4C)CC3)cc2)cc1	6.32

SMILES	hERG current change (%, negative = inhibition) at 10uM [%]
CN(C)/C=N/c1[nH]ncc1C#N	16
O=[N+]([O-])/C(C(Cl)=C(Cl)Cl)=C(\Sc1ccccc1)N1CCCCC1	-0.233
COc1ccc2c(c1)C1NC(=S)NC(C)(O2)C1C(=O)Nc1ccc(C)cc1C (stereo not drawn)	1.01
COc1cccc(CN(C)C(=O)CSC(C)C(=O)Nc2cc(C)on2)c1OC (stereo not drawn)	5.86
CN1CCN(c2ccccc2NC(=O)c2ccc(OCc3ccccc3)cc2)CC1	-41.9
COc1ccc(C(=O)NCC(=O)Nc2ccc(-c3ccccc3)cc2)cc1	23
CC(C)NC(=O)C1CCN(C2CCN(C(=O)C3=CCCC3)CC2)CC1	2.17
Cc1cccn2cc(-c3ccc(F)cc3)cc12	7.17
CCN(CC(=O)Nc1c(F)cccc1F)C(=O)CN(C)S(=O)(=O)c1ccc(F)cc1	-7.19
CN(C)CCN(C(=O)C1=COCCO1)c1nc2ccc(F)cc2s1.Cl	-73
CCCCCCC(=O)N(O)C1CC(=O)N(c2ccc(F)cc2)C1=O (stereo not drawn)	18.1
CN(C)c1cc(N)c2c(n1)CCC2.O=C(O)c1cncc(O)c1	-10.8
COc1cccc(C(=O)Nc2nnc(SCC(=O)Nc3ccc(NC(C)=O)cc3)s2)c1	-36.6
COc1ccc(-n2nnnc2SCC(=O)NC(=O)Nc2ccc3c(c2)OCCO3)cc1	3.64
Cc1occc1-c1nnc(SCC(=O)NC2CC2)n1C	2.21
CCC(Oc1ccccc1)C(=O)Nc1ccsc1C(=O)OC (stereo not drawn)	-0.992
Cc1ccc(C(=O)OCC(=O)Nc2cc(C(C)(C)C)nn2-c2ccccc2)c(O)c1	-8.07
Cc1nnc2n1NC(c1ccc(Cl)cc1)C(C(=O)N1CCC(C)CC1)S2 (stereo not drawn)	8.16
CN(Cc1c(C(=O)N/N=C/c2cccc(O)c2)nnn1-c1nonc1N)C1CCCCC1	-2.25
O=C(N/N=C/C1CC=CCC1)c1ccccc1O (stereo not drawn)	0.891
CC(C)CCN(C(=O)CNC(=O)c1cccs1)C(C(=O)NC1CCCCC1)c1cccnc1 (stereo not drawn)	-36.4
